Consider ten variants from the supplement of paper PMC12217912.

Sequences and labels used below:
B1: TEV protease; numbered along this chain (parent)
chain: MGESLFKGPRDYNPISSSICHLTNESDGHTTSLYGIGFGPFIITNKHLFRRNNGTLVVQSLHGVFKVKDTTTLQQHLVDGRDMIIIRMPKDFPPFPQKLKFREPQREERICLVTTNFQTKSMSSMVSDTSCTFPSGDGIFWKHWIQTKDGQCGSPLVSTRDGFIVGIHSASNFTNTNNYFTSVPKNFMELLTNQEAQQWVSGWRLNADSVLWGGHKVFMVKPEEPFQPVKEATQL

Variants of B1 are the subject of this test. The test is described as follows: raw area under fraction-flipped curve 0-4 h after induction (AUC4h, not background-subtracted), DNA-recorder readout of cleavage of the substrate (dimensionless); higher = more cleavage of the substrate by the protease variant. The note with it: temperature: 34 °C; time window: 0-4 h after rhamnose induction. How it is done:
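In vivo DNA recorder in E. coli TOP10(DE3) ΔrhaA at 34 °C. Each TEVp single-site mutant (parent TEVp 0) is paired with a single-site variant of the 7-mer TEVs (canonical ENLYFQ|S). The substrate sits between flexible linkers in a Bxb1-sfGFP-TEVs-SsrA fusion, so cleavage stabilises Bxb1 and speeds flipping of a recombination array, read by NGS. The value is the raw area under the fraction-flipped curve over 0-4 h after rhamnose induction (AUC4h), with ≥20 reads per time point. It is not background-subtracted; inactive controls average about 0.047.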

The list shows a part of the results. Sequences were assembled here from the parent chain. Values near 0.05 are background.
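Also: Bxb1 expression induced with 0.2% (w/v) L-rhamnose at OD600 near 0.5, cultures sampled hourly, flipped fraction per protease–substrate barcode pair counted by paired-end Illumina sequencing.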

With MGTSLFKGPRDYNPISSSICHLTNESDGHTTSLYGIGFGPFIITNKHLFRRNNGTLVVQSLHGVFKVKDTTTLQQHLVDGRDMIIIRMPKDFPPFPQKLKFREPQREERICLVTTNFQTKSMSSMVSDTSCTFPSGDGIFWKHWIQTKDGQCGSPLVSTRDGFIVGIHSASNFTNTNNYFTSVPKNFMELLTNQEAQQWVSGWRLNADSVLWGGHKVFMVKPEEPFQPVKEATQL [E3T], the “area with substrate ENAYFQS” value turned out to be 0.0663, the “area with substrate ENEYFQS” value worked out at 0.068, the “area with substrate ENGYFQS” value was 0.0322 and the “area with substrate ENPYFQS” value amounted to 0.054. For the same variant, the “area with substrate ENQYFQS” value turned out to be 0.06, the “area with substrate ENRYFQS” value came to 0.0675, the “area with substrate ENSYFQS” value was 0.0617 and the “area with substrate ENTYFQS” value was 0.0588. Also, the “area with substrate ENYYFQS” value stood at 0.0487.

Take MLESLFKGPRDYNPISSSICHLTNESDGHTTSLYGIGFGPFIITNKHLFRRNNGTLVVQSLHGVFKVKDTTTLQQHLVDGRDMIIIRMPKDFPPFPQKLKFREPQREERICLVTTNFQTKSMSSMVSDTSCTFPSGDGIFWKHWIQTKDGQCGSPLVSTRDGFIVGIHSASNFTNTNNYFTSVPKNFMELLTNQEAQQWVSGWRLNADSVLWGGHKVFMVKPEEPFQPVKEATQL [G2L]: the “area with substrate ENAYFQS” value turned out to be 0.0594, the “area with substrate ENCYFQS” value worked out at 0.0621, the “area with substrate ENEYFQS” value was 0.0631 and the “area with substrate ENFYFQS” value stood at 0.0457. The “area with substrate ENHYFQS” value turned out to be 0.0535, the “area with substrate ENKYFQS” value came out at 0.0773, the “area with substrate ENNYFQS” value came out at 0.0511 and the “area with substrate ENQYFQS” value was found to be 0.0508. The “area with substrate ENRYFQS” value is 0.0626, the “area with substrate ENSYFQS” value was determined as 0.0561, the “area with substrate ENVYFQS” value is 0.0924 and the “area with substrate ENWYFQS” value worked out at 0.0506.

As for MGESWFKGPRDYNPISSSICHLTNESDGHTTSLYGIGFGPFIITNKHLFRRNNGTLVVQSLHGVFKVKDTTTLQQHLVDGRDMIIIRMPKDFPPFPQKLKFREPQREERICLVTTNFQTKSMSSMVSDTSCTFPSGDGIFWKHWIQTKDGQCGSPLVSTRDGFIVGIHSASNFTNTNNYFTSVPKNFMELLTNQEAQQWVSGWRLNADSVLWGGHKVFMVKPEEPFQPVKEATQL [L5W], the “area with substrate ENAYFQS” value was found to be 0.0698, the “area with substrate ENCYFQS” value was 0.0779, the “area with substrate ENEYFQS” value was 0.0615 and the “area with substrate ENFYFQS” value is 0.0647. Besides, the “area with substrate ENGYFQS” value was 0.0642, the “area with substrate ENIYFQS” value is 0.149, the “area with substrate ENNYFQS” value is 0.0576 and the “area with substrate ENQYFQS” value came out at 0.0583. Further, the “area with substrate ENRYFQS” value came to 0.0834, the “area with substrate ENSYFQS” value amounted to 0.0672, the “area with substrate ENTYFQS” value was determined as 0.068 and the “area with substrate ENVYFQS” value was determined as 0.0777. Moreover, the “area with substrate ENWYFQS” value came to 0.0714.

In the case of MGESNFKGPRDYNPISSSICHLTNESDGHTTSLYGIGFGPFIITNKHLFRRNNGTLVVQSLHGVFKVKDTTTLQQHLVDGRDMIIIRMPKDFPPFPQKLKFREPQREERICLVTTNFQTKSMSSMVSDTSCTFPSGDGIFWKHWIQTKDGQCGSPLVSTRDGFIVGIHSASNFTNTNNYFTSVPKNFMELLTNQEAQQWVSGWRLNADSVLWGGHKVFMVKPEEPFQPVKEATQL [L5N], the “area with substrate ENAYFQS” value came to 0.0437, the “area with substrate ENCYFQS” value was 0.0701, the “area with substrate ENDYFQS” value was 0.0552 and the “area with substrate ENEYFQS” value was 0.0603. Also, the “area with substrate ENFYFQS” value was determined as 0.0589, the “area with substrate ENPYFQS” value was 0.0567, the “area with substrate ENQYFQS” value was 0.0653 and the “area with substrate ENRYFQS” value was 0.0618. The “area with substrate ENSYFQS” value came to 0.0564, the “area with substrate ENVYFQS” value amounted to 0.0772 and the “area with substrate ENYYFQS” value stood at 0.0665.

On to MGESAFKGPRDYNPISSSICHLTNESDGHTTSLYGIGFGPFIITNKHLFRRNNGTLVVQSLHGVFKVKDTTTLQQHLVDGRDMIIIRMPKDFPPFPQKLKFREPQREERICLVTTNFQTKSMSSMVSDTSCTFPSGDGIFWKHWIQTKDGQCGSPLVSTRDGFIVGIHSASNFTNTNNYFTSVPKNFMELLTNQEAQQWVSGWRLNADSVLWGGHKVFMVKPEEPFQPVKEATQL [L5A], for which the “area with substrate ENAYFQS” value worked out at 0.0551, the “area with substrate ENDYFQS” value was determined as 0.0663, the “area with substrate ENFYFQS” value turned out to be 0.0546 and the “area with substrate ENGYFQS” value was found to be 0.0681. Besides, the “area with substrate ENIYFQS” value came to 0.134, the “area with substrate ENKYFQS” value worked out at 0.0674, the “area with substrate ENNYFQS” value stood at 0.0548 and the “area with substrate ENQYFQS” value was 0.0746. The “area with substrate ENRYFQS” value was 0.0728 and the “area with substrate ENTYFQS” value is 0.0701.

For the variant MGESLDKGPRDYNPISSSICHLTNESDGHTTSLYGIGFGPFIITNKHLFRRNNGTLVVQSLHGVFKVKDTTTLQQHLVDGRDMIIIRMPKDFPPFPQKLKFREPQREERICLVTTNFQTKSMSSMVSDTSCTFPSGDGIFWKHWIQTKDGQCGSPLVSTRDGFIVGIHSASNFTNTNNYFTSVPKNFMELLTNQEAQQWVSGWRLNADSVLWGGHKVFMVKPEEPFQPVKEATQL [F6D], the “area with substrate ENAYFQS” value worked out at 0.082, the “area with substrate ENDYFQS” value turned out to be 0.0507, the “area with substrate ENFYFQS” value is 0.0641 and the “area with substrate ENGYFQS” value stood at 0.0617. For the same variant, the “area with substrate ENNYFQS” value came to 0.0521, the “area with substrate ENQYFQS” value turned out to be 0.0576, the “area with substrate ENSYFQS” value came out at 0.0632 and the “area with substrate ENVYFQS” value came out at 0.078.

With MGESLGKGPRDYNPISSSICHLTNESDGHTTSLYGIGFGPFIITNKHLFRRNNGTLVVQSLHGVFKVKDTTTLQQHLVDGRDMIIIRMPKDFPPFPQKLKFREPQREERICLVTTNFQTKSMSSMVSDTSCTFPSGDGIFWKHWIQTKDGQCGSPLVSTRDGFIVGIHSASNFTNTNNYFTSVPKNFMELLTNQEAQQWVSGWRLNADSVLWGGHKVFMVKPEEPFQPVKEATQL [F6G], the “area with substrate ENAYFQS” value stood at 0.0559, the “area with substrate ENCYFQS” value came out at 0.0732, the “area with substrate ENDYFQS” value amounted to 0.0711 and the “area with substrate ENEYFQS” value worked out at 0.0499. The “area with substrate ENQYFQS” value turned out to be 0.0491, the “area with substrate ENSYFQS” value was 0.0772 and the “area with substrate ENTYFQS” value is 0.0297.

Turning to MGESLWKGPRDYNPISSSICHLTNESDGHTTSLYGIGFGPFIITNKHLFRRNNGTLVVQSLHGVFKVKDTTTLQQHLVDGRDMIIIRMPKDFPPFPQKLKFREPQREERICLVTTNFQTKSMSSMVSDTSCTFPSGDGIFWKHWIQTKDGQCGSPLVSTRDGFIVGIHSASNFTNTNNYFTSVPKNFMELLTNQEAQQWVSGWRLNADSVLWGGHKVFMVKPEEPFQPVKEATQL [F6W], the “area with substrate ENAYFQS” value turned out to be 0.0654, the “area with substrate ENCYFQS” value was 0.0618, the “area with substrate ENEYFQS” value stood at 0.107 and the “area with substrate ENGYFQS” value is 0.0565. The “area with substrate ENHYFQS” value worked out at 0.061, the “area with substrate ENKYFQS” value stood at 0.0553, the “area with substrate ENMYFQS” value stood at 0.0808 and the “area with substrate ENNYFQS” value worked out at 0.0641. The “area with substrate ENPYFQS” value turned out to be 0.053, the “area with substrate ENRYFQS” value amounted to 0.0677, the “area with substrate ENSYFQS” value amounted to 0.0716 and the “area with substrate ENTYFQS” value was 0.0684. Besides, the “area with substrate ENVYFQS” value was 0.0731 and the “area with substrate ENWYFQS” value was determined as 0.0484.

Take MGESLSKGPRDYNPISSSICHLTNESDGHTTSLYGIGFGPFIITNKHLFRRNNGTLVVQSLHGVFKVKDTTTLQQHLVDGRDMIIIRMPKDFPPFPQKLKFREPQREERICLVTTNFQTKSMSSMVSDTSCTFPSGDGIFWKHWIQTKDGQCGSPLVSTRDGFIVGIHSASNFTNTNNYFTSVPKNFMELLTNQEAQQWVSGWRLNADSVLWGGHKVFMVKPEEPFQPVKEATQL [F6S]: the “area with substrate ENAYFQS” value was determined as 0.0726, the “area with substrate ENDYFQS” value was determined as 0.0387, the “area with substrate ENEYFQS” value came to 0.0619 and the “area with substrate ENHYFQS” value was 0.0594. Besides, the “area with substrate ENNYFQS” value came to 0.057, the “area with substrate ENQYFQS” value was 0.0547, the “area with substrate ENRYFQS” value was found to be 0.0542 and the “area with substrate ENSYFQS” value came out at 0.0645. For the same variant, the “area with substrate ENVYFQS” value stood at 0.0711.

Take MGEQLFKGPRDYNPISSSICHLTNESDGHTTSLYGIGFGPFIITNKHLFRRNNGTLVVQSLHGVFKVKDTTTLQQHLVDGRDMIIIRMPKDFPPFPQKLKFREPQREERICLVTTNFQTKSMSSMVSDTSCTFPSGDGIFWKHWIQTKDGQCGSPLVSTRDGFIVGIHSASNFTNTNNYFTSVPKNFMELLTNQEAQQWVSGWRLNADSVLWGGHKVFMVKPEEPFQPVKEATQL [S4Q]: the “area with substrate ENAYFQS” value is 0.0541, the “area with substrate ENCYFQS” value stood at 0.0594, the “area with substrate ENDYFQS” value was found to be 0.08 and the “area with substrate ENEYFQS” value was 0.0572. In addition, the “area with substrate ENGYFQS” value came out at 0.0562, the “area with substrate ENHYFQS” value amounted to 0.0524, the “area with substrate ENKYFQS” value was found to be 0.0579 and the “area with substrate ENMYFQS” value was determined as 0.0954. The “area with substrate ENNYFQS” value turned out to be 0.0507, the “area with substrate ENPYFQS” value was 0.0605, the “area with substrate ENQYFQS” value is 0.0614 and the “area with substrate ENSYFQS” value was determined as 0.0693. In addition, the “area with substrate ENTYFQS” value came out at 0.0682, the “area with substrate ENVYFQS” value was 0.0805, the “area with substrate ENWYFQS” value worked out at 0.0646 and the “area with substrate ENYYFQS” value came to 0.0411.
